Read-outs that look alike come from different tables or passages of the source.

One assay deals with PhoA5 pPAT7. Type of assay: cell-based, Pseudomonas putida. To be noted: gradient 0 to 50 g/L, listed as histidine.
A further assay has as its system P. putida DOT-T1E (#348). It counts as cell-based, Pseudomonas putida. Conditions: repeated lines.

Consider `N[C@@H](Cc1c[nH]cn1)C(=O)O` [Histidine, L-histidine], for which the “tolerance to amino acid” value in the assay on PhoA5 pPAT7 is on record as “at a level similar to that of the wild-type strain”. Turning to `O=C(N[C@H](CO)[C@H](O)c1ccc([N+](=O)[O-])cc1)C(Cl)Cl` [CAM, chloramphenicol], the “Growth (distance in mm) on CAM gradient” value in the assay with P. putida DOT-T1E (#348) (gradient 0-50 mg/L) and in the assay on P. putida DOT-T1E (#348) (gradient 0-100 mg/L) was 90 mm each time.

(Values after patent US7348421B1, “Methods for production of p-hydroxybenzoate in bacteria” (North Carolina State University, priority 2000, dated 2008).)
